Reference: paper PMC12040169 (PLOS Biology, 2025)
Some of the results follow.

tested on: T1, C. trachomatis L2/434/Bu expressing GFP (CTL2-GFP); set-up: species or system HeLa; C. trachomatis total inclusion area by high-content imaging, normalised to DMSO; settings: total inclusion area; 28.5 h, 10 µM; inhibitor
T1 construct: L2/434/Bu GFP intracellular growth in HeLa cells
In short: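 Bulk GFP and resorufin signals were read first. Wells were then fixed, stained with Hoechst and imaged to detect GFP inclusions and host nuclei. MICs followed the previously described calculation.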

Structure (SMILES) | % of control remaining
CNC(=O)C1(Cc2ccccc2-c2cccs2)CCN(C(=O)c2cccc(OC)c2)CC1 [CBK285907] | 109.921
CCSc1nc(N)c(NC(=O)c2ccco2)c(=O)[nH]1 [CBK287613] | 83.8281
Cc1ccccc1C(=O)N1CCN(Cc2cc(=O)n3ccsc3n2)CC1 [CBK304595] | 59.1333
Cc1ccc(N(CC(O)CNC23CC4CC(CC(C4)C2)C3)S(=O)(=O)c2ccccc2)cc1 (stereo not drawn) [CBK264741] | 88.4188
O=C(CC(CN1CCN(Cc2ccccn2)CC1)C(=O)O)Nc1ccc(F)cc1 (stereo not drawn) [CBK286800] | 94.0922
NC(=O)CC1C=CS(=O)(=O)C1 (stereo not drawn) [CBK019653] | 62.9674
O=c1[nH]ccn2nc(-c3ccc4c(c3)OCO4)cc12 [CBK288048] | 87.106
Cc1ccc(-c2cc(C(=O)N3CCN(C4CCS(=O)(=O)C4)CC3)c3ccccc3n2)cc1 (stereo not drawn) [CBK297153] | 72.9573
COc1ccc(S(=O)(=O)N2CCN(C(=O)c3ccco3)CC2)c2ccccc12 [CBK269839] | 100.11
COc1nnc(-c2ccc(N3CCOCC3)c(NC(=O)COc3ccc(C)cc3)c2)c2ccccc12 [CBK266103] | 124.182
CCn1nc(C)c(NC(=O)CN(C)Cc2ccccc2C(F)(F)F)c1C [CBK306771] | 72.1934
O=C(CNS(=O)(=O)c1ccc(Br)cc1)NCc1cccnc1 [CBK266295] | 124.444
Fc1cccc(-c2nc3c(s2)CN(C2CCOCC2)CC3)c1 [CBK281647] | 93.2402
O=C(CCCC1CC1)N1CCn2c(nnc2-c2cncc(Br)c2)C1 [CBK304767] | 107.285
CC(=O)OCc1c(C)cc(C)c(CN(C)C(C)c2ccon2)c1C (stereo not drawn) [CBK306780] | 44.901
CCc1noc(C)c1C(=O)Nc1cc(S(=O)(=O)N2CCCCC2)ccc1N(C)C [CBK295328] | 99.7415
O=C(CSc1nnc(-c2ccco2)c(-c2ccco2)n1)Nc1ccccc1[N+](=O)[O-] [CBK265762] | 138.915
O=C(O)Cc1sc(-c2ccc3c(c2)OCO3)nc1-c1ccccc1 [CBK200114] | 94.0993
c1ccc(-c2nc3cc4ccccc4cc3[nH]2)nc1 [CBK000130] | 5.749
CCOC(=O)Cn1c(C)nc2ccccc21 [CBK115311] | 85.3904

Structure (SMILES) | % of control remaining
COc1ccc2nc(NCc3ccccc3)sc2c1 [CBK287485] | 18.2337
O=C1NCCN1CCOc1nccnc1-c1cnn(Cc2ccccc2)c1 [CBK107094] | 83.2579
CC1(C)C(=O)Nc2ccccc2N1C(=O)COc1ncnc2sc3c(c12)CCC3 [CBK297530] | 97.0409
Cc1ccc(CNCc2cc3c(C)nn(-c4ccccc4)c3[nH]c2=O)o1 [CBK282896] | 104.734
Cc1ccccc1CNC(=O)CCc1c(C)nc2nc(N)nn2c1C [CBK304987] | 77.3424
Cc1nc2cccnc2n1C1CCN(C(=O)C(C)(C)C)CC1 [CBK282426] | 117.782
CC(C)NC(=O)Nc1ccc(C(=O)N(CCC#N)C(C)C2CC2)cc1 (stereo not drawn) [CBK305312] | 88.1504
O=C(Nc1nc2ccccc2[nH]1)c1ccc(N2CCCS2(=O)=O)cc1 [CBK304582] | 36.9967
COc1ccc(N2CC(C(=O)Nc3ccc(C(=O)O)cc3)CC2=O)cc1 (stereo not drawn) [CBK268782] | 110.821
CC(C)C(=O)Nc1cc2cccnc2nc1-c1ccsc1 [CBK073649] | 99.8352
COc1ccc(C[C@@H]2NC(=O)[C@H]3CN(C(=O)Nc4cccc(OC)c4)CCN3C2=O)cc1 [CBK289617] | 89.2822
Cc1cc2cn([C@H]3C[C@@H](O)[C@@H](CO)O3)c(=O)nc2[nH]1 [CBK201302] | 97.8385
O=C(Cn1ncc2ccccc2c1=O)N1CCC(c2ccccc2)C1 (stereo not drawn) [CBK281843] | 73.659
COc1ccnc(N2CCc3c(ncn3C3CC3)C2)n1 [CBK304816] | 71.0797
CCOc1ccc2ccccc2c1CNCc1cccnc1 [CBK269934C] | 82.97
Cc1noc(C)c1S(=O)(=O)Nc1ccnn1C [CBK062073] | 79.0724
COc1ccc(/C=C/C(=O)O)cc1S(=O)(=O)N1CCCCCC1 [CBK263565] | 116.174
O=C(CN1CCN(c2nc3cc(Cl)ccc3s2)CC1)c1ccc2c(c1)OCCCO2 [CBK074737] | 94.3763
Cc1n[nH]c(C)c1CNC(=O)c1cc2ccc(F)cc2[nH]1 [CBK283147] | 102.661
